According to article PMC4132728:
Residue numbers refer to the chain shown, from its start. No constants are given. Whether binding was seen depends on the method and setting. Binding seen in cells or lysates may run through a third protein. Some binding calls cover weakened binding; strength is not graded here. For some of these results: Tags and fused reporters may be left off the sequences shown. Blank lines part the entries; values can stand above or below the molecule they belong to.

By UniProt entry, the sequences of proteins in these tests, tags left out.
UniProt Q86US8: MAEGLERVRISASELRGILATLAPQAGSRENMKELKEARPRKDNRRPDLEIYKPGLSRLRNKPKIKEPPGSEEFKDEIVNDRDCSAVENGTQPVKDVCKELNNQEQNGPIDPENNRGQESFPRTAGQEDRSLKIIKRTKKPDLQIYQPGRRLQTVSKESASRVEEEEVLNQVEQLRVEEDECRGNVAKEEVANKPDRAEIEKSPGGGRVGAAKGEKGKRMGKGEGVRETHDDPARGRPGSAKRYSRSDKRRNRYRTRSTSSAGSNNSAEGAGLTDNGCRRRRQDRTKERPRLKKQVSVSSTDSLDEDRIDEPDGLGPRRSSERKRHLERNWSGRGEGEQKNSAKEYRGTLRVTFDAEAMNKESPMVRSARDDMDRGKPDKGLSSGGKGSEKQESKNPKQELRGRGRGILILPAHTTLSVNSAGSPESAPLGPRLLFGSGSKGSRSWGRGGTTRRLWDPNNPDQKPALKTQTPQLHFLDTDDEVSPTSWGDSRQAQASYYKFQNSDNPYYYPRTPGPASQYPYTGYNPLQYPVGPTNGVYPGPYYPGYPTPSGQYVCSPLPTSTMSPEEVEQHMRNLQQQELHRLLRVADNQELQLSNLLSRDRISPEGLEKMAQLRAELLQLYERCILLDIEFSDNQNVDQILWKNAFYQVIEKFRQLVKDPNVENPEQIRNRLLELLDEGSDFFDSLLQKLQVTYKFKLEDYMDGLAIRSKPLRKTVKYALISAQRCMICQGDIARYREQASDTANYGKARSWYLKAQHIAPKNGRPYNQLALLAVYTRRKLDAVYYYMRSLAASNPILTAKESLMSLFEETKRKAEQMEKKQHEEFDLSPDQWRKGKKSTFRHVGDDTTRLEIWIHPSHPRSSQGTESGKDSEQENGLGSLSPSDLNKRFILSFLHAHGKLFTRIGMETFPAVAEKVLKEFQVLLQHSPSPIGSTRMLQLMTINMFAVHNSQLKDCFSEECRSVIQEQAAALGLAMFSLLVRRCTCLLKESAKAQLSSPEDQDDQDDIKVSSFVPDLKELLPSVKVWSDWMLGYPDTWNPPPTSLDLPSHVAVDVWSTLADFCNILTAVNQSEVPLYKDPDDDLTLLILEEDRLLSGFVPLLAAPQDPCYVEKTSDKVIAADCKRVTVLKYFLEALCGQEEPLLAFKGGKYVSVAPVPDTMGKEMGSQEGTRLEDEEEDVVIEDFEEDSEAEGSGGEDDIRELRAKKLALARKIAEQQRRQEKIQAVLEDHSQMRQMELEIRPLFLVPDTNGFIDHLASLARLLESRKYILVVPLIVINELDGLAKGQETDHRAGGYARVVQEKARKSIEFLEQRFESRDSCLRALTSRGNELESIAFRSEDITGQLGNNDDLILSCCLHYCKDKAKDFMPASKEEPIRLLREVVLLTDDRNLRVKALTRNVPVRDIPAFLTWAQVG
UniProt Q04637: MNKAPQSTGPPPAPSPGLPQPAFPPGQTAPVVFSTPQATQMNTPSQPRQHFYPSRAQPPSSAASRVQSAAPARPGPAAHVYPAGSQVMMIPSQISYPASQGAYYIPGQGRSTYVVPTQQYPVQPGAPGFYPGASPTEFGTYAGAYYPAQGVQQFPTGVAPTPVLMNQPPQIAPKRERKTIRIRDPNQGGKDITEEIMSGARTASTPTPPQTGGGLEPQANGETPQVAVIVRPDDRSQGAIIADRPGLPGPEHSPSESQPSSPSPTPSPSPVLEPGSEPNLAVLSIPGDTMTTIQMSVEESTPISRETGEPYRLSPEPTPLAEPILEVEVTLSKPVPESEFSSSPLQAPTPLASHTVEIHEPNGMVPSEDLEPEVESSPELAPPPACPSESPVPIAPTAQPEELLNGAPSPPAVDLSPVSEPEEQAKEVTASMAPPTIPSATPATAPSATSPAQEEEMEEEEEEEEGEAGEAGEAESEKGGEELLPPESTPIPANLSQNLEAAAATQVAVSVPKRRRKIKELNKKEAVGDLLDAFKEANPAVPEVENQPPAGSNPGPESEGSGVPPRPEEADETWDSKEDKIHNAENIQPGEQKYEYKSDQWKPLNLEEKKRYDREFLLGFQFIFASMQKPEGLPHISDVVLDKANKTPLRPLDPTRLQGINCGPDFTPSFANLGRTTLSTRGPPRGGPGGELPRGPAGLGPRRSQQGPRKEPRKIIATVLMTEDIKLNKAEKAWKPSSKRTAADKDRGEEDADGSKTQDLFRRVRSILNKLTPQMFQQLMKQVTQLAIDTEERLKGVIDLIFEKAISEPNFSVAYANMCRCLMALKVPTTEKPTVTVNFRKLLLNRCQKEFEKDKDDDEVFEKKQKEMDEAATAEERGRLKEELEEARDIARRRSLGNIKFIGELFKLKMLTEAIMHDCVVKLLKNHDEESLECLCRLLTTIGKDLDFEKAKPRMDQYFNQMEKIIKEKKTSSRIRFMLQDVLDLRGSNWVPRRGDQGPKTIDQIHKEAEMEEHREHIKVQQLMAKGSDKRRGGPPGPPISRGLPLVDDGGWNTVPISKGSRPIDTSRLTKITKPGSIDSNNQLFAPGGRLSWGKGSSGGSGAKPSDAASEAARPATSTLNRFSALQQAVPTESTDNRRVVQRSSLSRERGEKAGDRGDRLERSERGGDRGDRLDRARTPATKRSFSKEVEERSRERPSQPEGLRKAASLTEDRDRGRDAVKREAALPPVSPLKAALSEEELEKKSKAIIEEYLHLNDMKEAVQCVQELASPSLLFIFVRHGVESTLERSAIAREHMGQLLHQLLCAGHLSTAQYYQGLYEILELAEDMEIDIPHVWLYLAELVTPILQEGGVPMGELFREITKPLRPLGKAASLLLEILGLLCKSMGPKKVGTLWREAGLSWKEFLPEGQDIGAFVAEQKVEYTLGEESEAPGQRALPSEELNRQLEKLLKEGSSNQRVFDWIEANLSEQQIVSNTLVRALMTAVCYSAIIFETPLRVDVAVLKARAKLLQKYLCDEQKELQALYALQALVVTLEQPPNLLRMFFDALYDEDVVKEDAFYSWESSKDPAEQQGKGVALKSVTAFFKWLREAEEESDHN

Assays:
[1] = molecular target: T1, CBP80/20-dependent translation initiation factor (CTIF), endogenous (human (endogenous in HEK293T and HeLa)) (UniProt O43310); test: co-IP; IP of endogenous CTIF with α-CTIF antibody (control rabbit IgG) from HEK293T total-cell extracts; cells untreated or treated with 5 mM HU for 20 min; NET-2 buffer (50 mM Tris-HCl pH 7.4, 150 mM NaCl, 0.05% NP-40)
T1 sequence: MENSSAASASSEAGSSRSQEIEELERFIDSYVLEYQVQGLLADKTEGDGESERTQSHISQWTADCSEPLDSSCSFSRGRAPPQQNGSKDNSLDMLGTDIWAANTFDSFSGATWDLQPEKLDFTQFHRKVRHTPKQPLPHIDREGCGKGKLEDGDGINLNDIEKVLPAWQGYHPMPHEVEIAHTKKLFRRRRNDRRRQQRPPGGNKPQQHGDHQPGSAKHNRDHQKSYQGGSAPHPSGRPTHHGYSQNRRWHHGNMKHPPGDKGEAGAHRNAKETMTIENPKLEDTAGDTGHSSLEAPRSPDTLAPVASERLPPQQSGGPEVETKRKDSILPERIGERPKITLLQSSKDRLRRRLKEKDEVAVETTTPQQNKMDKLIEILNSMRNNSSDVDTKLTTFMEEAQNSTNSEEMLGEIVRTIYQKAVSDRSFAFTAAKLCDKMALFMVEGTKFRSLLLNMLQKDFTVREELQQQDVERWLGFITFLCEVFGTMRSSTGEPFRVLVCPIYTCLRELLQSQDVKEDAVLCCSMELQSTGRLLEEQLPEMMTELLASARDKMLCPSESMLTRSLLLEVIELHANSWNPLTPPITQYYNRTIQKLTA

FLAG-SLBP [2] = molecular target: FLAG-SLBP (UniProt Q14493); test: co-IP; IP of FLAG-SLBP with α-FLAG agarose from HEK293T cells co-expressing Myc-PNRC2; extracts treated with RNase A; cells untreated or treated with 5 mM HU for 20 min; control or UPF1 siRNA
FLAG-SLBP [3] = molecular target: FLAG-SLBP (UniProt Q14493); test: co-IP; IP of FLAG-SLBP with α-FLAG agarose from HeLa cells transfected with increasing amounts of plasmid for Myc-UPF1-WT or -HP
GST-SLBP(1–127) = GST-SLBP(1–127) (UniProt Q14493); test: pull-down; GST pull-down: E. coli lysates with GST or GST-SLBP(1–127) mixed with purified His-UPF1(295–914) and increasing amounts of purified His-CTIF(365–598); bRIP1 added to equalise total protein; blots with α-GST and α-6xHis; only the binder purified

Molecule: SMG6, endogenous (from UniProt Q86US8 1-1419)
- binding (FLAG-SLBP [2]): no binding

B1: Myc-UPF1-WT (protein, UniProt Q92900-2 1-1118)
chain: MSVEAYGPSSQTLTFLDTEEAELLGADTQGSEFEFTDFTLPSQTQTPPGGPGGPGGGGAGGPGGAGAGAAAGQLDAQVGPEGILQNGAVDDSVAKTSQLLAELNFEEDEEDTYYTKDLPIHACSYCGIHDPACVVYCNTSKKWFCNGRGNTSGSHIVNHLVRAKCKEVTLHKDGPLGETVLECYNCGCRNVFLLGFIPAKADSVVVLLCRQPCASQSSLKDINWDSSQWQPLIQDRCFLSWLVKIPSEQEQLRARQITAQQINKLEELWKENPSATLEDLEKPGVDEEPQHVLLRYEDAYQYQNIFGPLVKLEADYDKKLKESQTQDNITVRWDLGLNKKRIAYFTLPKTDSDMRLMQGDEICLRYKGDLAPLWKGIGHVIKVPDNYGDEIAIELRSSVGAPVEVTHNFQVDFVWKSTSFDRMQSALKTFAVDETSVSGYIYHKLLGHEVEDVIIKCQLPKRFTAQGLPDLNHSQVYAVKTVLQRPLSLIQGPPGTGKTVTSATIVYHLARQGNGPVLVCAPSNIAVDQLTEKIHQTGLKVVRLCAKSREAIDSPVSFLALHNQIRNMDSMPELQKLQQLKDETGELSSADEKRYRALKRTAERELLMNADVICCTCVGAGDPRLAKMQFRSILIDESTQATEPECMVPVVLGAKQLILVGDHCQLGPVVMCKKAAKAGLSQSLFERLVVLGIRPIRLQVQYRMHPALSAFPSNIFYEGSLQNGVTAADRVKKGFDFQWPQPDKPMFFYVTQGQEEIASSGTSYLNRTEAANVEKITTKLLKAGAKPDQIGIITPYEGQRSYLVQYMQFSGSLHTKLYQEVEIASVDAFQGREKDFIILSCVRANEHQGIGFLNDPRRLNVALTRARYGVIIVGNPKALSKQPLWNHLLNYYKEQKVLVEGPLNNLRESLMQFSKPRKLVNTINPGARFMTTAMYDAREAIIPGSVYDRSSQGRPSSMYFQTHDQIGMISAGPSHVAAMNIPIPFNLVMPPMPPPGYFGQANGPAAGRGTPKGKTGRGGRQKNRFGLPGPSQTNLPNSQASQDVASQPFSQGALTQGYISMSQPSQMSQPGLSQPELSQDSYLGDEFKSQIDVALSQDSTYQGERAYQHGGVTGLSQY
- binding (FLAG-SLBP [3]): binds

B2: Myc-UPF1-HP (protein, UniProt Q92900-2 1-1118)
chain: B1 chain with G495R, G497E
- binding (FLAG-SLBP [3]): binds

B4: His-CTIF(365–598) (domain or fragment, UniProt O43310 365-598)
chain: TTPQQNKMDKLIEILNSMRNNSSDVDTKLTTFMEEAQNSTNSEEMLGEIVRTIYQKAVSDRSFAFTAAKLCDKMALFMVEGTKFRSLLLNMLQKDFTVREELQQQDVERWLGFITFLCEVFGTMRSSTGEPFRVLVCPIYTCLRELLQSQDVKEDAVLCCSMELQSTGRLLEEQLPEMMTELLASARDKMLCPSESMLTRSLLLEVIELHANSWNPLTPPITQYYNRTIQKLTA
- binding (GST-SLBP(1–127)): binds

B5: His-UPF1(295–914) (domain or fragment, UniProt Q92900-2 295-914)
chain: RYEDAYQYQNIFGPLVKLEADYDKKLKESQTQDNITVRWDLGLNKKRIAYFTLPKTDSDMRLMQGDEICLRYKGDLAPLWKGIGHVIKVPDNYGDEIAIELRSSVGAPVEVTHNFQVDFVWKSTSFDRMQSALKTFAVDETSVSGYIYHKLLGHEVEDVIIKCQLPKRFTAQGLPDLNHSQVYAVKTVLQRPLSLIQGPPGTGKTVTSATIVYHLARQGNGPVLVCAPSNIAVDQLTEKIHQTGLKVVRLCAKSREAIDSPVSFLALHNQIRNMDSMPELQKLQQLKDETGELSSADEKRYRALKRTAERELLMNADVICCTCVGAGDPRLAKMQFRSILIDESTQATEPECMVPVVLGAKQLILVGDHCQLGPVVMCKKAAKAGLSQSLFERLVVLGIRPIRLQVQYRMHPALSAFPSNIFYEGSLQNGVTAADRVKKGFDFQWPQPDKPMFFYVTQGQEEIASSGTSYLNRTEAANVEKITTKLLKAGAKPDQIGIITPYEGQRSYLVQYMQFSGSLHTKLYQEVEIASVDAFQGREKDFIILSCVRANEHQGIGFLNDPRRLNVALTRARYGVIIVGNPKALSKQPLWNHLLNYYKEQKVLVEGPLNNLRESLMQFS
- binding (GST-SLBP(1–127)): binds

The next lines start with the values.

- binding [1]: no binding
Molecule: eIF4GI, endogenous (from UniProt Q04637 1-1599)

- binding (FLAG-SLBP [2]): no binding
B3: SMG7, endogenous (protein, UniProt Q92540 1-1137)
chain: MSLQSAQYLRQAEVLKADMTDSKLGPAEVWTSRQALQDLYQKMLVTDLEYALDKKVEQDLWNHAFKNQITTLQGQAKNRANPNRSEVQANLSLFLEAASGFYTQLLQELCTVFNVDLPCRVKSSQLGIISNKQTHTSAIVKPQSSSCSYICQHCLVHLGDIARYRNQTSQAESYYRHAAQLVPSNGQPYNQLAILASSKGDHLTTIFYYCRSIAVKFPFPAASTNLQKALSKALESRDEVKTKWGVSDFIKAFIKFHGHVYLSKSLEKLSPLREKLEEQFKRLLFQKAFNSQQLVHVTVINLFQLHHLRDFSNETEQHTYSQDEQLCWTQLLALFMSFLGILCKCPLQNESQEESYNAYPLPAVKVSMDWLRLRPRVFQEAVVDERQYIWPWLISLLNSFHPHEEDLSSISATPLPEEFELQGFLALRPSFRNLDFSKGHQGITGDKEGQQRRIRQQRLISIGKWIADNQPRLIQCENEVGKLLFITEIPELILEDPSEAKENLILQETSVIESLAADGSPGLKSVLSTSRNLSNNCDTGEKPVVTFKENIKTREVNRDQGRSFPPKEVRRDYSKGITVTKNDGKKDNNKRKTETKKCTLEKLQETGKQNVAVQVKSQTELRKTPVSEARKTPVTQTPTQASNSQFIPIHHPGAFPPLPSRPGFPPPTYVIPPPVAFSMGSGYTFPAGVSVPGTFLQPTAHSPAGNQVQAGKQSHIPYSQQRPSGPGPMNQGPQQSQPPSQQPLTSLPAQPTAQSTSQLQVQALTQQQQSPTKAVPALGKSPPHHSGFQQYQQADASKQLWNPPQVQGPLGKIMPVKQPYYLQTQDPIKLFEPSLQPPVMQQQPLEKKMKPFPMEPYNHNPSEVKVPEFYWDSSYSMADNRSVMAQQANIDRRGKRSPGVFRPEQDPVPRMPFEKSLLEKPSELMSHSSSFLSLTGFSLNQERYPNNSMFNEVYGKNLTSSSKAELSPSMAPQETSLYSLFEGTPWSPSLPASSDHSTPASQSPHSSNPSSLPSSPPTHNHNSVPFSNFGPIGTPDNRDRRTADRWKTDKPAMGGFGIDYLSATSSSESSWHQASTPSGTWTGHGPSMEDSSAVLMESLKSIWSSSMMHPGPSALEQLLMQQKQKQQRGQGTMNPPH
